Results reported in PubChem BioAssay AID1963576 (National Center for Advancing Translational Sciences (NCATS), 2024).
The campaign covered roughly 46,000 compounds. About 60 (0.1%) were called active. Not shown: some 3% with an inconclusive outcome. Calls come from the whole dose curve; as a rule, active = well fitted inhibition curve with a large enough effect; inconclusive = small, poorly fitted or top-dose-only effect; inactive = no such curve, though single readings can be large or run the other way. This is one part of the list.

Experiment: Primary qHTS assay for Inhibitors of ovarian cancer metastasis using an organotypic tumor microenvironment (TME) model.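 For activity change, negative = inhibition: plate controls were DMSO wells for no effect and tomatine positive control wells for full effect.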 Note: nearly all actives have a fitted effect of over 65% in size.
Settings: SKOV3ip1-GFP adhesion/invasion on 3D omental model, fluorescence; series mostly up to 45.8 µM; activity change, negative = inhibition: at the top concentration
Outline: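 Primary human omental fibroblast/mesothelial 3D culture pre-formed 48 h. SKOV3ip1-GFP cells added with compounds (0.36-46 umol/L), incubated 2 h RT/16 h 37 C, fixed; GFP cells quantified at 488/509 nm.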

Activity change, negative = inhibition, inactive:
CCCCc1nc2ccccc2n2c(-c3ccc(C)cc3)c3c(=O)n(C)c(=O)n(C)c3c12 -1.5%, CO[C@@H]1[C@@H](OC(N)=O)[C@@H](O)[C@H](Oc2ccc3c(O)c(NC(=O)c4ccc(O)c(CC=C(C)C)c4)c(=O)oc3c2C)OC1(C)C -8.92%, Cc1c(C)n(Cc2ccc(Cl)cc2)c2ccc(C(=O)NCCc3ccc(S(N)(=O)=O)cc3)cc12 17.5%, Nc1c(-c2nc(-c3ccc(Cl)cc3)cs2)c2ccccn2c1C(=O)c1ccc2c(c1)OCO2 3.98%, Cc1cc(N2CCCCC2)nc2ccc(NC(=O)c3cccc(F)c3)cc12 -28.9%, CC1CCN(S(=O)(=O)c2ccc3c(c2)N(CC(=O)NC(C)c2ccccc2)C(=O)CO3)CC1 (centres undefined) 6.7%, O=S(=O)(c1cccc(C(F)(F)F)c1)n1c(/C=C/c2ccccc2)nc2ccccc21 -16%, CCCN1CCN(CCCNC(=O)c2cnn(-c3ccc(F)cc3)c2-n2cccc2)CC1 -5.39%, CCOc1ccc(Nc2nc3ccccc3n3c(CC)nnc23)cc1 -11.1%, CCCc1nnc(NC(=O)Cc2coc3cc(C)cc(C)c23)s1 14.9%, O=Nc1c(-c2c(O)[nH]c3cc(Br)ccc23)[nH]c2ccccc12 -28.8%, O=C(NCC(c1ccco1)S(=O)(=O)c1ccc(Cl)cc1)c1ccccc1F (centres undefined) 3.81%, COc1ccc(CCNC(=O)c2nnc(Cc3ccc(Cl)cc3)o2)cc1OC -2.68%, O=[N+]([O-])c1cc(-c2nc(-c3cccnc3)no2)ccc1NCc1ccccc1 49.2%, CCCOC(=O)c1ccc(NC(=O)Cc2csc(C)n2)cc1 9.14%, Cc1c(C(=O)NCc2ccccc2)sc2nc3n(c(=O)c12)CCC3 18.1%, CCOC(=O)c1sc(NC(=O)c2cc(CC)on2)c(C(=O)OCC)c1C -3.72%, Cc1cccc(N2C(=O)CSC23C(=O)N(Cc2cccc(C(F)(F)F)c2)c2ccccc23)c1 (centres undefined) 8.96%, CSc1nc2sc3c(c2c(=O)n1-c1ccccc1C)CCCC3 -1.57%, CN(C)CCNC(=O)CCCN1C(=O)c2cccnc2Oc2ccc(Cl)cc21 5.52%, O=C1CC(c2nc3ccccc3n2CCCOc2ccccc2)CN1c1ccc(F)cc1 (centres undefined) 4.7%, COc1ccc(N2CCN(C(=O)c3ccc(CS(=O)(=O)c4ccc(Br)cc4)o3)CC2)cc1 1.88%, Cc1nc(N2CCCC2)c2c(C(=O)N3CCN(c4cccc(Cl)c4)CC3)c(C)oc2n1 23.3%, C=Cc1ccc(CSc2nc(-c3ccccc3Cl)nc3c2Cc2c(CO)cnc(C)c2O3)cc1 5.8%, C=C(C)[C@@H]1CC[C@]2(C)CC[C@]3(C)[C@H](CC[C@@H]4[C@@]5(C)CC[C@H](O)C(C)(C)[C@H]5CC[C@]43C)[C@@H]12 -3.08%, CCOc1ccc(C2c3c(oc4ccc(C)cc4c3=O)C(=O)N2Cc2ccc3c(c2)OCO3)cc1OC (centres undefined) -7.44%, CCc1ccccc1NC(=O)CSc1ncc2c(n1)-c1ccccc1N(Cc1ccc(C)cc1)S2(=O)=O 7.24%, CCOC(=O)c1ccccc1NS(=O)(=O)c1c(-c2ccc(C)cc2)csc1C(=O)OC 2.63%, Cc1ccc(S(=O)(=O)c2cn(Cc3ccccc3)c3cc(N4CCCC4)c(F)cc3c2=O)cc1C -9.44%, CCN(Cc1ccccc1)C(=O)CCNS(=O)(=O)c1ccc2c(c1)CC(C)N2C(C)=O (centres undefined) 3.95%, COc1ccccc1CNS(=O)(=O)c1c(C)nc2sccn2c1=O -12.3%, CC(C)Oc1ccc(CNC(=O)c2ccc(NC(=O)c3nsc4ccccc34)cc2)cc1 -10.6%, O=C(OCc1ccccc1Cl)c1ccc(-c2nnn(Cc3ccccc3)n2)cc1 1.61%, O=C(Nc1ccc(NC(=O)c2cccs2)cc1)c1ccc(Br)cc1 3.53%, COc1ccc(/C=C(/C#N)c2nc(-c3ccc(-c4ccccc4)cc3)cs2)cc1 -1.85%, CCN(CCCNC(=O)c1cc2cc3cc(C)ccc3nc2s1)c1cccc(C)c1 0.329%, CCOC(=O)Cn1c(=O)cc(-c2ccccc2)c2c(C)nn(C)c21 3.95%, Cc1oc2ncnc(N3CCCCC3)c2c1C(=O)NCC1CCN(Cc2ccc(F)cc2)CC1 9.55%, Cc1nc(-c2ccccc2)sc1-c1ccc(SCC(=O)Nc2ccc(F)cc2F)nn1 -11.4%, COc1ccc(OC)c(CCNC(=O)c2ccc(CS(=O)Cc3cccc(Cl)c3)o2)c1 (centres undefined) -4.65%, CCc1ccc(-n2nc(CO)c(C(=O)NCc3ccccn3)n2)cc1 6.4%, CCc1ccccc1N(CC)C(=O)c1cc2c(s1)-c1ccccc1OC2 -6.11%, CCCCNc1nc(Oc2ccc(=O)n(-c3ccccc3)n2)nc(N(C)C)n1 -0.423%, CC(Sc1oc(-c2ccco2)nc1S(=O)(=O)c1ccc(Br)cc1)c1ccccc1 (centres undefined) -5.78%, CCC(CC)c1nn2c(=O)cc(COc3ccc(NC(=O)c4ccc(Cl)cc4)cc3)nc2s1 13.2%, COc1ccc(-n2ncc(C(=O)N3CCN(c4ccccn4)CC3)c2C2CCN(C(=O)OC(C)(C)C)CC2)cc1 3.4%, Cc1nnc(N2CCN(c3ccccc3F)CC2)c2c1nnn2Cc1ccc(F)cc1 5.73%, CCC(C)NC(=O)c1ccc2c(c1)N(Cc1cccc(Cl)c1)C(=O)c1ccccc1S2=O (centres undefined) 1.34%, COCCNC(=O)c1c(NC(=O)Cc2coc3cc(C)ccc23)sc2c1CCCC2 -3.49%, O=C(CN(c1cccc(Br)c1)S(=O)(=O)c1ccccc1)N1CCc2ccccc2C1 11.5%, COc1ccc(N2CCN(c3nc(-c4ccccc4F)nc4ccccc34)CC2)cc1 -4.14%, CCOC(=O)c1cn(CC(=O)Nc2cccc(Cl)c2C)nn1 7.02%, CN(C(=O)c1nn(C)c2c1COc1ccccc1-2)c1cccc(C(F)(F)F)c1 -7.3%, Cc1nn2c(=O)cc(COC(=O)c3ccccc3NC(=O)c3ccccc3C)nc2s1 -6.29%, COc1cccc(OCc2nc3ccccc3n2CCOc2ccccc2)c1 8.57%, COc1ccc(NC(=O)Cc2coc3cc(C)cc(C)c23)c(OC)c1 1.69%, COc1ccc2c(c1)c1c(c(=O)n(Cc3ccccc3)c(=O)n1Cc1cc(C)ccc1C)n2C -29.6%, Cc1ccc(C)c(OCCSc2nc3ccccc3n2CC(=O)N2CCOCC2)c1 -3.75%, COc1ccc(-c2ccc(NS(=O)(=O)c3ccc(F)c(C(F)(F)F)c3)cc2)nn1 -28.6%, Cc1ccc(CN2CCCn3nc(C(=O)NCCN(C)C)cc3C2=O)cc1 10.3%, COC(=O)c1c(NC(=O)CCCOc2ccc(C)cc2)sc2c1C(C(=O)OC)CC2 (centres undefined) -3.68%, CCOC(=O)c1ccc2c(c1)N(Cc1cccc([N+](=O)[O-])c1)C(=O)c1ccccc1S2 20.4%, O=C(Cn1c(=O)nc(-c2ccccc2)c2cc(Cl)ccc21)NCc1ccccc1 0.972%

outcome, inactive:
O=S(=O)(Nc1cccc(-c2ccc(N3CCCCC3)nn2)c1)c1cccc(F)c1, COCCCNC(=O)c1cc2c(=O)n3cccc(C)c3nc2s1, CSc1cccc(NC(=O)CN(c2ccccc2)S(=O)(=O)N(C)C)c1, COc1ccc(C2C(=O)N(C3CCC(C)CC3)CC(=O)N2CCc2ccccc2)cc1OC (centres undefined), O=C(Cn1c(=O)n(-c2ccccc2)c(=O)c2sc3ccccc3c21)N1CCCC1, Cc1ccc(C(=O)N2CCc3cc(CNC(=O)COc4ccccc4)ccc32)cc1, COc1ccc(-c2nn3c(=O)cc(CN4CCN(C(=O)Nc5ccc(C)c(Cl)c5)CC4)nc3s2)cc1, Cc1ccc2oc(=O)c3cnn(CC(=O)Nc4cccc(C(F)(F)F)c4)c3c2c1, CC(C)OCCCNC(=O)CCCn1c(SCC(=O)c2ccc(F)cc2)nc2c(sc3ccccc32)c1=O, O=C(Nc1ccc(Br)cc1)C1CCN(S(=O)(=O)c2cccc3nsnc23)CC1, CC(C)c1ccc(NC(=O)CN2C(=O)COc3ccc(S(=O)(=O)Nc4ccccc4)cc32)cc1, COCC(=O)N1c2nc(C(C)C)nn2C2(CCCCC2)[C@@H]2CCCC[C@@H]21, CCC(=O)N1CCc2cc(Br)cc(S(=O)(=O)NCc3ccc(Cl)cc3)c21, Cc1ccc(N2CC(C)Cn3c2nc2c3c(=O)n(CC(=O)O)c(=O)n2C)cc1 (centres undefined), Cc1cc(C)cc(-n2ccn(CC(=O)Nc3ccccc3C(F)(F)F)c(=O)c2=O)c1, CCN(c1ccccc1)c1nnc(NC(=O)Nc2cccc(Br)c2)s1, Cc1ccc(CNC(=O)c2ccc(CSCc3ccc(C)cc3)o2)cc1, CCN(c1ccc(OC)cc1)S(=O)(=O)c1nnc(NC(=O)c2ccccc2Cl)s1, CCN(C(=O)Cn1ncc2c1-c1cc(C)ccc1OC2)c1cc(Cl)ccc1OC, Cc1nc(-c2ccccc2)sc1CCNC(=O)c1ccco1, COc1cccc(CNC(=O)CCc2c(C)c3cc4c(C)c(C)oc4cc3oc2=O)c1, CC(C)(C)C(=O)Nc1ccc2nc(SCC(=O)N3CCCC3)sc2c1, Cc1ccc(C)c(NC(=O)C(=O)NCCc2csc(-c3ccc(C(F)(F)F)cc3)n2)c1, Cc1ccccc1CSc1nc2nc(C)c(Cc3ccccc3)c(C)n2n1, COCCNc1nc(NCc2ccccc2OC)c2cnn(C)c2n1, CCOc1ccccc1NC(=O)C(NS(=O)(=O)c1cccc2nsnc12)c1ccccc1 (centres undefined), COc1ccc(N2CCN(CCCNC(=O)c3cnn(-c4ccc(F)cc4)c3-n3cccc3)CC2)cc1, Cc1nc2ccn(Cc3ccco3)c(=O)c2cc1C(=O)N1CCN(c2ccccc2F)CC1, CCOC(=O)c1c(C)[nH]c(C)c1S(=O)(=O)N1CCC(C(=O)NCc2ccccc2)CC1, CCc1cccc(CC)c1NC(=O)c1cc(S(=O)(=O)N2CCc3ccccc32)cn1C, Cn1nc(-c2ccc(OCC(=O)Nc3ccccc3)cc2)c2ccccc2c1=O
